Source: the supplement of paper PMC11880418
Where a name gives a salt, the structure may show the parent alone. The list shows a part of the results. The data scatter; read single values as rough.

test system: PANC1; experiment: ALDHbr (CSC) cell proportion score relative to DMSO vehicle (ratio to DMSO); breast (SUM159) / gastric (MKN45) / pancreatic (PANC1) / colon cancer lines; ALDHbr cells have high ALDH activity and are rich in cancer stem cells (CSC); higher = more CSC (ALDHbr) cells remaining; settings: 10 µM; 72 h
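Note: High-content imaging of ALDEFLUOR-stained cells with Hoechst-labelled nuclei in 384-well plates, triplicate wells, scored as Z-score against 0.1% DMSO vehicle, negative meaning fewer ALDHbr cells.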

Compound	ALDHbr
CC#C[C@]1(O)CC[C@H]2[C@@H]3CCC4=CC(=O)CCC4=C3[C@@H](c3ccc(N(C)C)cc3)C[C@@]21C [Mifepristone]	0.412
CC(C)NCC(O)c1ccc(NS(C)(=O)=O)cc1 (centres undefined) [Sotalol hydrochloride]	1.01
C[C@@H]1CN(c2c(F)c(N)c3c(=O)c(C(=O)O)cn(C4CC4)c3c2F)C[C@H](C)N1 [Sparfloxacin]	0.834
CN1CCC(=C2c3ccccc3CCc3sccc32)CC1 [Pizotifen malate]	1.08
CC1=C(/C=C/C(C)=C/C=C/C(C)=C/C(=O)O)C(C)(C)CCC1 [Retinoic acid]	2.04
C[C@H](CS)C(=O)N1CCC[C@H]1C(=O)O [Captopril]	0.912
CC(C)COCC(CN(Cc1ccccc1)c1ccccc1)N1CCCC1 (centres undefined) [Bepridil hydrochloride]	0.94
CCC1=C(C)CN(C(=O)NCCc2ccc(S(=O)(=O)NC(=O)N[C@H]3CC[C@H](C)CC3)cc2)C1=O [Glimepiride]	0.648
O=C(O)COCCN1CCN(C(c2ccccc2)c2ccc(Cl)cc2)CC1 (centres undefined) [Cetirizine dihydrochloride]	1.01
C[N+]1(C)CCC(OC(=O)C(O)(c2ccccc2)C2CCCC2)C1 (centres undefined) [Glycopyrrolate]	0.91
CN1CCCN=C1/C=C/c1cccc(O)c1 [Oxantel pamoate]	0.934
CCC1(c2ccccc2)C(=O)NCNC1=O [Primidone]	0.874
N[C@H]1CONC1=O [(S)-(-)-Cycloserine]	0.986
Nc1nc2c(ncn2COC(CO)CO)c(=O)[nH]1 [Ganciclovir]	0.948
